Reference: PubChem BioAssay AID504832 (National Center for Advancing Translational Sciences (NCATS), 2011)
Out of some 310,000 compounds screened, about 18,000 (5.8%) were called active. The shares of active, inactive and inconclusive entries below differ from those in the screen. Calls come from the whole dose curve; as a rule, active = well fitted inhibition curve with a large enough effect; inconclusive = small, poorly fitted or top-dose-only effect, or another doubt; inactive = no such curve, though single readings can be large or run the other way. Potencies of inconclusive entries are left out as doubtful fits.
% is set by controls: 0 for no effect and ±100 for the full control effect; potency is the fitted concentration of half-maximal effect; tags give direction and shape of the fitted curve.

Experiment: Primary qHTS for delayed death inhibitors of the malarial parasite plastid, 48 hour incubation
Details: P. falciparum luciferase growth in erythrocytes; series mostly up to 28.7 µM; activity change, negative = inhibition: at the top concentration
How it was run: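 First compound was added to culture medium, then infected red cells at 0.1% parasitemia and 2% hematocrit (final). After incubation at 37 C under 5% CO2, luciferase detection reagent was dispensed and light output recorded.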
In the case of Cc1ccccc1NC(=S)NCC1CCC(CNC(=S)Nc2ccccc2C)CC1 (stereo not drawn), the Potency is reported as inconclusive [inhibitor, partial curve, poor fit].
For CCC(=O)Nc1nc2ccc3nc(C)sc3c2s1, the Potency was inconclusive [inhibitor, single point].
With COc1ccc(CN2C(=O)C(=O)N(CC(N)=O)C2=O)cc1 the “activity change, negative = inhibition” value was inactive: 23%.
For CC(=O)c1c(C)[nH]c(C(=O)CSc2nnc(-c3cccs3)n2Cc2ccccc2)c1C, the Potency was active: 9.28 µM.
In the case of CCOc1ccc(N=C2NC(=O)S/C2=C\c2ccc(Cl)cc2)cc1, the “activity change, negative = inhibition” value is reported as inactive: 32.5%.
With Cc1cccc(NC(=O)CSCC(=O)Nc2ccccc2N2CCCCC2)c1 the Potency was inconclusive [inhibitor, single point].
In the case of COc1ccc(Cl)cc1NC(=O)CN(C)CC(=O)N1CC(=O)Nc2ccccc21, the Potency is reported as inconclusive [inhibitor, single point].
With COC1CCN(C(=O)c2cc(COc3ccc(-n4cncn4)cc3)on2)CC1 the “activity change, negative = inhibition” value was inactive: 1.04%.
In the case of CCCc1cc(=O)[nH]c(N/N=C/C=C\c2ccccc2)n1, the “activity change, negative = inhibition” value is reported as inactive: -9.41%.
In the case of O=C1C(Cc2ccccc2)Nc2ncnc(N3CCN(c4ccccc4)CC3)c2N1Cc1ccccc1 (stereo not drawn), the Potency is reported as active: 2.94 µM.
With Cc1ccccc1Nc1c(-c2cccnc2)nc2cccc(C)n12 the Potency was inconclusive [inhibitor, single point].
With CCOC(=O)c1cnc(/N=C/N(C)C)s1 the “activity change, negative = inhibition” value was inactive: 102%.
In the case of Oc1c(Br)cc(Br)cc1Oc1ccc(Br)cc1Br, the Potency is reported as inconclusive [inhibitor, partial curve].
With COc1ccc(-n2nnc3c(SC(C(C)=O)C(=O)N(C)C)ncnc32)cc1 (stereo not drawn) the Potency was inconclusive [inhibitor, single point].
In the case of CCOc1cccc(C(=O)NCc2ccccc2)c1, the “activity change, negative = inhibition” value is reported as inactive: 11.6%.
With COCCNC(=O)c1ccc2c(c1)CCN2S(C)(=O)=O the Potency was inconclusive [inhibitor, single point].
For O=C(CN1CCN(Cc2ccc3c(c2)OCO3)CC1)N1CCc2[nH]c3ccc(F)cc3c2C1, the Potency was inconclusive [inhibitor, single point].
With COc1ccc(C(=O)NC(=S)NNC(=O)c2ccncc2)cc1Br the Potency was active: 13.1 µM.
With CC(C)C(NC(=O)c1c(F)cccc1F)C(=O)OCN1C(=O)c2ccccc2C1=O (stereo not drawn) the “activity change, negative = inhibition” value was inactive: -0.699%.
With COc1nc(N)c(S(=O)(=O)c2ccccc2C)cc1C#N the Potency was inconclusive [inhibitor, single point].
For CCOc1ccccc1C(=O)N[C@H](C(=O)Nc1cc(S(=O)(=O)N(C)C)ccc1OC)C(C)C, the Potency was inconclusive [inhibitor, partial curve, poor fit].
With COc1ccc(/C=C/C(=O)NCCc2ccc(S(N)(=O)=O)cc2)cc1 the “activity change, negative = inhibition” value was inactive: 8.17%.
For c1ccc(C[n+]2cccc(-c3ccccc3)c2)cc1, the Potency was active: 2.08 µM.
For Cc1ccc(C)c(Cn2c3ccccc3c3cnn(CC(=O)NCc4ccccn4)c(=O)c32)c1, the Potency was inconclusive [inhibitor, partial curve, poor fit].
In the case of Cc1ccc(S(=O)(=O)N2CCOCC2)cc1C(=O)OCC(=O)N(Cc1ccccc1)C(C)C, the Potency is reported as active: 14.7 µM.
With CCOc1ccccc1N(CC(=O)Nc1ccc2c(c1)OCO2)S(C)(=O)=O the “activity change, negative = inhibition” value was inactive: 3.67%.
In the case of O=C(C[n+]1ccccc1)N/N=C/c1ccc(Br)cc1, the Potency is reported as active: 10.4 µM.
In the case of O=C(Nc1ccc(F)cc1)C1COc2ccccc2O1 (stereo not drawn), the “activity change, negative = inhibition” value is reported as inactive: 64.8%.
In the case of COc1cccc(/C=N/NC(=O)CSc2cccc3cccnc23)c1, the “activity change, negative = inhibition” value is reported as inactive: -19.7%.
With Cc1cccc(CN2CCN(C(=O)CCl)CC2)c1 the Potency was active: 1.17 µM.
With CC(C)N(CC#CCC(O)(c1ccccc1)c1ccccc1)C(C)C the Potency was inconclusive [inhibitor, partial curve].
In the case of COc1ccc(CCNC(=O)c2c(O)c3ccccc3[nH]c2=O)cc1OC, the Potency is reported as inconclusive [inhibitor, single point].
With CC(C)=CCc1c(O)c(CC=C(C)C)c2occ(-c3ccc(O)cc3)c(=O)c2c1O the Potency was active: 2.94 µM.
With COCCN(C(=O)COC(=O)c1cccnc1SC)c1c(N)n(Cc2ccccc2)c(=O)[nH]c1=O the “activity change, negative = inhibition” value was inactive: 1.01%.
In the case of CCOC(=O)c1c(C)nc(C)c(C(=O)OCC)c1-c1ccc(Br)cc1, the “activity change, negative = inhibition” value is reported as inactive: -22.9%.
For COc1ccc(C2C3=C(CC(C)(C)CC3=O)Oc3ncn(CCCn4ccnc4)c(=N)c32)cc1 (stereo not drawn), the Potency was active: 9.28 µM.
With Nc1nc(CN2CCc3ccccc3C2)nc(Nc2ccccc2)n1 the Potency was inconclusive [inhibitor, single point].
For CN(CC(=O)Nc1ccccc1Cl)C(=O)CCc1nc2ccccc2c(=O)[nH]1, the Potency was inconclusive [inhibitor, single point].
In the case of Cc1cccc(-c2cc3nc(C)cc(NCCCn4ccnc4)n3n2)c1, the Potency is reported as inconclusive [inhibitor, single point].
For C/C(=N\Nc1nc(C)cc(-c2ccccc2)n1)c1ccccc1, the Potency was inconclusive [inhibitor, single point].
With COc1cccc(C2C3=C(N=c4s/c(=C\c5ccccc5O)c(=O)n42)c2ccccc2CC3)c1OC (stereo not drawn) the Potency was active: 1.85 µM.
For CCOC(=O)c1c(C)c(C(=O)NCc2ccco2)c(C)n1Cc1ccccc1, the “activity change, negative = inhibition” value was inactive: -26%.
With O=C(NCC1CCCO1)c1ccc2c(c1)N(Cc1ccc(F)cc1Cl)C(=O)CS2 (stereo not drawn) the Potency was inconclusive [inhibitor, single point].
For C#CCOCCOCCOCCNc1nc(N2CCOCC2)nc(N2CCN(C(=O)[C@H]([C@@H](C)CC)n3cc([C@@H](N)Cc4ccc(O)cc4)nn3)CC2)n1, the Potency was active: 1.47 µM.
With COc1ccc(-c2nc3ccccc3n2Cc2ccc(C)cc2)cc1 the Potency was inconclusive [inhibitor, partial curve, poor fit].
In the case of COc1ccc(NC(=O)c2cc3nc(-c4ccccc4)cc(C)n3n2)cc1OC, the Potency is reported as inconclusive [inhibitor, partial curve].
For CCOc1cc(C2c3c(oc4cc(C)c(Cl)cc4c3=O)C(=O)N2Cc2ccco2)ccc1O (stereo not drawn), the Potency was inconclusive [inhibitor, single point].
With Clc1ccc(N=NN2CCOCC2)cc1 the “activity change, negative = inhibition” value was inactive: 47.2%.
With OCCCc1n[nH]c(=S)n1-c1ccccc1 the Potency was inconclusive [inhibitor, partial curve].
With COc1ccc(CNC(=O)C2CCN(S(=O)(=O)c3cccc4cccnc34)CC2)cc1 the “activity change, negative = inhibition” value was inactive: -7.29%.
With O=C1CSC(=Nc2cccc(Cl)c2Cl)N1 the “activity change, negative = inhibition” value was inactive: 14.4%.
With CN(C)c1cccc(C(=O)NCc2ccc(Cl)cc2)c1 the Potency was active: 4.15 µM.
In the case of NC(=O)C1CCN(c2ccc(C(F)(F)F)cn2)CC1, the Potency is reported as inconclusive [inhibitor, partial curve, poor fit].
In the case of COc1ccc(-c2cc(-c3c(O)c(OC)c4occc4c3OC)[nH]n2)cc1OC, the Potency is reported as inconclusive [inhibitor, partial curve, poor fit].
For N#CC(c1ccc(Cl)cc1)c1cccc(Cl)n1 (stereo not drawn), the Potency was inconclusive [inhibitor, single point].
For COc1ccccc1NC(=O)c1c([N+](=O)[O-])c(C(C)(C)C)nn1C, the Potency was inconclusive [inhibitor, partial curve, poor fit].
With O=C(O)COc1ccccc1/C=N/NC(=O)/C(=C\c1ccc2c(c1)OCO2)NC(=O)c1ccccc1 the “activity change, negative = inhibition” value was inactive: 3.5%.
With CCCCCCCCC(=O)NNC(=O)c1c(O)c2ccccc2n(CCC)c1=O the “activity change, negative = inhibition” value was inactive: 20.5%.
In the case of O=C(Nc1ccccc1NC(=O)c1ccccc1Cl)c1ccccc1Cl, the Potency is reported as inconclusive [inhibitor, single point].
In the case of CCn1c2ccccc2c2cc(NC(=O)c3cc(C)on3)ccc21, the Potency is reported as inconclusive [inhibitor, single point].
With CCOc1ccccc1NC(=O)C(OC(=O)c1ccccc1NS(=O)(=O)c1cccs1)c1ccccc1 (stereo not drawn) the Potency was inconclusive [inhibitor, single point].
For CCC1(C)Cc2c(sc3nc(SC)nc(NCCN(C)C)c23)CO1 (stereo not drawn), the Potency was inconclusive [inhibitor, full curve].
With O=C(Nc1ccc(Cl)c(Cl)c1)c1ccc(Cn2cc(Cl)cn2)cc1 the Potency was inconclusive [inhibitor, single point].
With CS(=O)(=O)N1CCN(c2ccccc2NC(=O)c2ccc(-c3ccc(Br)cc3)o2)CC1 the Potency was inconclusive [inhibitor, partial curve, poor fit].
For COc1ccccc1N1CCN(C(=O)c2ccc(N(C)S(=O)(=O)c3ccccc3)cc2)CC1, the Potency was inconclusive [inhibitor, single point].
For COC(=O)[C@@]12CCCN1[C@H](c1ccc(-c3ccc(F)cc3)cc1)[C@H]1C(=O)N(C)C(=O)[C@H]12, the Potency was active: 1.17 µM.
For Cc1ccnc(NC(=O)CNC(=O)c2ccc3ccccc3c2)c1, the “activity change, negative = inhibition” value was inactive: 47.3%.
In the case of CCOc1ccc(-c2nnc(SCC(=O)Nc3cc(C)on3)o2)cc1, the Potency is reported as inconclusive [inhibitor, partial curve, poor fit].
For CCOc1ccccc1NC(=S)N1CCCc2ccccc21, the “activity change, negative = inhibition” value was inactive: 25%.
For C=C(C)c1cccc(C(C)(C)NC(=O)N2CCCCC2CC)c1 (stereo not drawn), the Potency was inconclusive [inhibitor, single point].
In the case of CC(C)CCNC(=O)C(=O)NCc1ccccc1, the “activity change, negative = inhibition” value is reported as inactive: 3.54%.
With CCCCCc1c(O)nc(SCC(=O)NCC2CCCO2)[nH]c1=O (stereo not drawn) the “activity change, negative = inhibition” value was inactive: 3.8%.
For COCCn1c(SCC(=O)N2CCCCCC2)nc2c([nH]c3ccccc32)c1=O, the Potency was inconclusive [inhibitor, partial curve].
